Drawing on publication PMC6264145, this text covers binding for eight molecules.

The chains behind the UniProt entries cited, without tags or fusion partners. Residues count along the entry.
UniProt Q92973: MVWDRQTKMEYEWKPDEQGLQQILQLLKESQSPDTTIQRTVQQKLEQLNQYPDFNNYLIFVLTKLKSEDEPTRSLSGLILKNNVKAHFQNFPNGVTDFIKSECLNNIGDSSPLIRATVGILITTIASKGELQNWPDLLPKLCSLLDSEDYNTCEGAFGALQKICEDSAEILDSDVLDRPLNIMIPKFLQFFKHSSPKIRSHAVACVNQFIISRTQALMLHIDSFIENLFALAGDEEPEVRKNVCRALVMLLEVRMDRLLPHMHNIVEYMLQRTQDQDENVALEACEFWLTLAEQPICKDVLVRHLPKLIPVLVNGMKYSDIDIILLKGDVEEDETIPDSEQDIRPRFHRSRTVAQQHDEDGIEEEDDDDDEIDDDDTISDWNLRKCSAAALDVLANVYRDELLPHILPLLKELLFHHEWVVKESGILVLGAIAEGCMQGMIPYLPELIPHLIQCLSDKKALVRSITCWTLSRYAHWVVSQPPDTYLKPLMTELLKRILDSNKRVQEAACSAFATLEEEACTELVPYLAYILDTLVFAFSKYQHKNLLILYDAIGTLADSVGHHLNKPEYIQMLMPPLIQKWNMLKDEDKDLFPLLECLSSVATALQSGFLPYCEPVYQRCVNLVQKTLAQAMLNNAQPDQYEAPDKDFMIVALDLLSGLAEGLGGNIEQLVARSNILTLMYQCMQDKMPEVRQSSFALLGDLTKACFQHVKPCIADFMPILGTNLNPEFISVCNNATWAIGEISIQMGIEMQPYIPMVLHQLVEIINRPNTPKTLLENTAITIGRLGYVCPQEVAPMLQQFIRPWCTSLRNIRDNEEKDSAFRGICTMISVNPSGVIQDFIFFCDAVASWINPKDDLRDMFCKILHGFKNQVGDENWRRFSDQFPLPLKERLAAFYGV
UniProt P52948, residues 1-880: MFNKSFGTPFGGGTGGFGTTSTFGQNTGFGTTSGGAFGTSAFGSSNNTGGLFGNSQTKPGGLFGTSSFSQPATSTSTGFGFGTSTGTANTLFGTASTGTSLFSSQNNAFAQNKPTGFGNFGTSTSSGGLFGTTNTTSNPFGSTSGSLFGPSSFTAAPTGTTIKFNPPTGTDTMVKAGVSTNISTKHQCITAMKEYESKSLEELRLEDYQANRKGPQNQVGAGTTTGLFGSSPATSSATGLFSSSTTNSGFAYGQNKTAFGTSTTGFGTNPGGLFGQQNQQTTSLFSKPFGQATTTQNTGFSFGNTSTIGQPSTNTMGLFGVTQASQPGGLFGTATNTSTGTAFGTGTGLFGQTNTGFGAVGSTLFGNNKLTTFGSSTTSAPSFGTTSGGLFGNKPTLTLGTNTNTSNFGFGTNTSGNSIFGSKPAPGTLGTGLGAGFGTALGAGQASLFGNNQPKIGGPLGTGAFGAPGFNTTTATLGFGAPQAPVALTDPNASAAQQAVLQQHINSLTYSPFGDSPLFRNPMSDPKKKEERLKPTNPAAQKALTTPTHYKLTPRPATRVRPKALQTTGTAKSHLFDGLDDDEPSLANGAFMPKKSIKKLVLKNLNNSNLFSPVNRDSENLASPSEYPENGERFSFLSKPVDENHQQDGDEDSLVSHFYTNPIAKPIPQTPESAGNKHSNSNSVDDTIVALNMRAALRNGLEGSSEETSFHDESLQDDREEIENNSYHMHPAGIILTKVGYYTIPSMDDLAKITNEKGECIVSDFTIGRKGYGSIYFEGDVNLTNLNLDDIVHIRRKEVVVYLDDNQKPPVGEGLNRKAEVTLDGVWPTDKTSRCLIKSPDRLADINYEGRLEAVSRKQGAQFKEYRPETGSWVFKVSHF
UniProt Q12796: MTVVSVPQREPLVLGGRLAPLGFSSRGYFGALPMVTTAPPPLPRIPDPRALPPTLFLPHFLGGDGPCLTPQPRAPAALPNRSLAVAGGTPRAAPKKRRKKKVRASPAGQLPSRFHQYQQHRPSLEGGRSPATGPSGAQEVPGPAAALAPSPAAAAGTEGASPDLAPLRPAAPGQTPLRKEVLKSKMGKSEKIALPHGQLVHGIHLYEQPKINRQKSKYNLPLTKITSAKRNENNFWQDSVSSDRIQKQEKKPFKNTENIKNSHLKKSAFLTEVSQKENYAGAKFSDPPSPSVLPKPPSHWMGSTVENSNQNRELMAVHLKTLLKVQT
UniProt Q13761: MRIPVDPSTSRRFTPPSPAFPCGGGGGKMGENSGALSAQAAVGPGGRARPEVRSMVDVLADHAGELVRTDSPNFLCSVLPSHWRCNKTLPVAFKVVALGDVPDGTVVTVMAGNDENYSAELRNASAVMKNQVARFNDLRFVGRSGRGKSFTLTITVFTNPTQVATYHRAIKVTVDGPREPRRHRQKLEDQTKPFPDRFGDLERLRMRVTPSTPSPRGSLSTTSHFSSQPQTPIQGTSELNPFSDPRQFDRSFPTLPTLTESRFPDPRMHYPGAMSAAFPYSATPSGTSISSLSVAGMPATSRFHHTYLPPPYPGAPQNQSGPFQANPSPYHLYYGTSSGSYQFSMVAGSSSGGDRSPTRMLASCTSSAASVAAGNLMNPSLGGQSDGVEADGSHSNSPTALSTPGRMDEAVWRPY

No constants are given. Whether binding was seen depends on the method and setting. Binding seen in cells or lysates may run through a third protein. Some binding calls cover weakened binding; strength is not graded here. Tags and fused reporters may be left off the sequences shown.

The target of assay [1] is T1, HA-tagged mutant RRR11-13A MX2 (human) (UniProt P20592).
T1 sequence: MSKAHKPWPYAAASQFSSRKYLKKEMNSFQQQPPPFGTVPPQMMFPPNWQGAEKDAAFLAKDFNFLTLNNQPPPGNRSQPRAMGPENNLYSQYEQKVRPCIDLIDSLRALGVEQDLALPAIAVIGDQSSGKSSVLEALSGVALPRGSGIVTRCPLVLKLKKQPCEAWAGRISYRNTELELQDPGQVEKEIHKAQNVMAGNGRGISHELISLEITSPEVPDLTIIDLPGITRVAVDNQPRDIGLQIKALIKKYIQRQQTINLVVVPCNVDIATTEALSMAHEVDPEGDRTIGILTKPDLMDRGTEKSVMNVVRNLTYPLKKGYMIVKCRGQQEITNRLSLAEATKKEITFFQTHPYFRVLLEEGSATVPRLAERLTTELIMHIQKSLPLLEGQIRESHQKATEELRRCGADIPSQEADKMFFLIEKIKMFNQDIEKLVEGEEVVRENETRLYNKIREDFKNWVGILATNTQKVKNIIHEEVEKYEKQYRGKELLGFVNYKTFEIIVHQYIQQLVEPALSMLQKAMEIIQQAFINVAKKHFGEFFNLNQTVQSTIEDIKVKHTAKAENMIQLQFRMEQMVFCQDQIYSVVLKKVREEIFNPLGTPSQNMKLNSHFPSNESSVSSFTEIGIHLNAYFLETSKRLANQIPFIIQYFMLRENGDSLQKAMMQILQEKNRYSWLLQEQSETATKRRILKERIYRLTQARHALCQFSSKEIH
The assay can be described thus: co-IP; 293T co-transfected with triple-HA and FLAG-tagged constructs; isotonic lysis buffer (PBS, 0.5% Triton-X100), sonication; anti-HA magnetic beads 2 h at 4°C; immunoblot with anti-FLAG.

Assay [2] deals with T2, HA-tagged wild-type MX2 (human) (UniProt P20592).
T2 sequence: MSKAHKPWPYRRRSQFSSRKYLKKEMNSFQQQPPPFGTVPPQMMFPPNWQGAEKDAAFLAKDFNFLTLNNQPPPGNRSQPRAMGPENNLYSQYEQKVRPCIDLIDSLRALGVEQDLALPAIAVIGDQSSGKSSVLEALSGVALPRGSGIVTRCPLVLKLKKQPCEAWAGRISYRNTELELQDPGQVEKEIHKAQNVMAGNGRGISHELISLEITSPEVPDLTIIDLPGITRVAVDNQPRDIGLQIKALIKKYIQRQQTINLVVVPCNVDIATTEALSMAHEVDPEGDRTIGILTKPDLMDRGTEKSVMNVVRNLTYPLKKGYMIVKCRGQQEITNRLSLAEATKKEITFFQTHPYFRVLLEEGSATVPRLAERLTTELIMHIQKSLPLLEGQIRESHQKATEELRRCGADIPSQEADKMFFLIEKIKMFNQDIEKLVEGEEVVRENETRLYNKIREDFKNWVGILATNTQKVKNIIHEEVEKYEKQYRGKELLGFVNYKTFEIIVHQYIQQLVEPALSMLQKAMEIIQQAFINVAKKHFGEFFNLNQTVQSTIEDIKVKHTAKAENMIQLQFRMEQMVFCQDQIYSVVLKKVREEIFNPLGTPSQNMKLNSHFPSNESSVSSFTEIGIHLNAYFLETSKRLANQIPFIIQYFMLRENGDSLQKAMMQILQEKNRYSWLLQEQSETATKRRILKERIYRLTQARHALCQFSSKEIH
The assay is described as above.

Assay [3] concerns the target T3, HA-tagged MX1 (human) (UniProt P20591).
T3 sequence: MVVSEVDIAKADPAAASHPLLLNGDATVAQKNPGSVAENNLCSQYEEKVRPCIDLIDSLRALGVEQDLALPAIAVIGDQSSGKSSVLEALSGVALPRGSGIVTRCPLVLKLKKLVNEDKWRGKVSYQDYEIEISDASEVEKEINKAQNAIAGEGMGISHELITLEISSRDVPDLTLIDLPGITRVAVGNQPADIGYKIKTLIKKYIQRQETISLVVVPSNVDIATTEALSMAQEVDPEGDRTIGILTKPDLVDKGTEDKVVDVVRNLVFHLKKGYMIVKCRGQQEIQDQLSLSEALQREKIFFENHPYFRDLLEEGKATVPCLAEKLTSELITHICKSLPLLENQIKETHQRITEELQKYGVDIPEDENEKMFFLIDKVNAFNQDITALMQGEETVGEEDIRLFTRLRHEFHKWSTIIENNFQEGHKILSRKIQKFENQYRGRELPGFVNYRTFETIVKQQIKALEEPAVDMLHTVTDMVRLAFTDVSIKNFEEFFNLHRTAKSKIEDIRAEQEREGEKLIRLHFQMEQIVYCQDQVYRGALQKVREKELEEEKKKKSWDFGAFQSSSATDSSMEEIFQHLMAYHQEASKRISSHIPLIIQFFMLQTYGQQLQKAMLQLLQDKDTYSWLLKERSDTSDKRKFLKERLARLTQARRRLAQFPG
Described as above.

For assay [4], the target named is T1, HA-tagged mutant RRR11-13A MX2 (human). In words: co-IP; 293T co-transfected with triple-HA and FLAG- or T7-tagged constructs; hypotonic lysis buffer (10 mM Tris-HCl pH 8.0, 10 mM KCl), Dounce homogenization, then 100 mM KCl and 0.3% Triton X-100; anti-HA magnetic beads 2 h at 4°C; wash with 200 mM KCl, 0.3% Triton X-100; used for PNRC1, KLHL6 and hRIP.
The target of assay [5] is T2, HA-tagged wild-type MX2 (human). The description is as above.
The target of assay [6] is T3, HA-tagged MX1 (human). Described as above.
The target in assay [7] is T1, HA-tagged mutant RRR11-13A MX2 (human). The assay can be described thus: co-IP; 293T co-transfected with triple-HA and FLAG-tagged constructs; isotonic lysis buffer (PBS, 0.5% Triton-X100), sonication; anti-HA magnetic beads 2 h at 4°C; immunoblot with anti-FLAG. This is another data set of the same source.
The target in assay [8] is T2, HA-tagged wild-type MX2 (human). Described as above. This is another data set of the same source.
In assay [9] the target is FLAG-TNPO1 (UniProt Q92973). In words: co-IP; 293T co-transfected with HA-tagged MX2 and FLAG-tagged constructs; isotonic lysis buffer; anti-FLAG (M2) magnetic beads 2 h at 4°C; immunoblot with anti-HA.

On to FLAG-NUP98 (from UniProt P52948 1-880), for which the binding entry in assay [1] is “binds weakly”; in assay [2], “binds”.

Take FLAG-TNPO1 (from UniProt Q92973 1-898): the figures for the binding entry in [3], in assay [1] and in assay [2] were “no binding”, “binds” and “binds”, respectively.

Consider PNRC1-FLAG (from UniProt Q12796 1-327), for which the binding entry is listed as “binds weakly” in assay [4] and “binds” in assay [5].

Take RUNX3-FLAG (from UniProt Q13761 1-415): in assay [1], the binding entry is listed as “binds”.

B1: T7-hRIP (protein, UniProt P52594 1-562)
chain: MAASAKRKQEEKHLKMLRDMTGLPHNRKCFDCDQRGPTYVNMTVGSFVCTSCSGSLRGLNPPHRVKSISMTTFTQQEIEFLQKHGNEVCKQIWLGLFDDRSSAIPDFRDPQKVKEFLQEKYEKKRWYVPPEQAKVVASVHASISGSSASSTSSTPEVKPLKSLLGDSAPTLHLNKGTPSQSPVVGRSQGQQQEKKQFDLLSDLGSDIFAAPAPQSTATANFANFAHFNSHAAQNSANADFANFDAFGQSSGSSNFGGFPTASHSPFQPQTTGGSAASVNANFAHFDNFPKSSSADFGTFNTSQSHQTASAVSKVSTNKAGLQTADKYAALANLDNIFSAGQGGDQGSGFGTTGKAPVGSVVSVPSQSSASSDKYAALAELDSVFSSAATSSNAYTSTSNASSNVFGTVPVVASAQTQPASSSVPAPFGATPSTNPFVAAAGPSVASSTNPFQTNARGATAATFGTASMSMPTGFGTPAPYSLPTSFSGSFQQPAFPAQAAFPQQTAFSQQPNGAGFAAFGQTKPVVTPFGQVAAAGVSSNPFMTGAPTGQFPTGSSSTNPFL
Turning to B1, the binding result was “no binding” in assay [6], “binds” in assay [4] and “binds” in assay [5].

B2: FLAG-NUPL2 (protein, UniProt O15504 1-423)
chain: MAICQFFLQGRCRFGDRCWNEHPGARGAGGGRQQPQQQPSGNNRRGWNTTSQRYSNVIQPSSFSKSTPWGGSRDQEKPYFSSFDSGASTNRKEGFGLSENPFASLSPDEQKDEKKLLEGIVKDMEVWESSGQWMFSVYSPVKKKPNISGFTDISPEELRLEYHNFLTSNNLQSYLNSVQRLINQWRNRVNELKSLNISTKVALLSDVKDGVNQAAPAFGFGSSQAATFMSPGFPVNNSSSDNAQNFSFKTNSGFAAASSGSPAGFGSSPAFGAAASTSSGISTSAPAFGFGKPEVTSAASFSFKSPAASSFGSPGFSGLPASLATGPVRAPVAPAFGGGSSVAGFGSPGSHSHTAFSKPSSDTFGNSSISTSLSASSSIIATDNVLFTPRDKLTVEELEQFQSKKFTLGKIPLKPPPLELLNV
On to B2, for which the binding result in assay [7] and in [8] was “binds” in each case.

B3: FLAG-KLHL6 (protein, UniProt Q8WZ60 1-621)
chain: MLMAGQRGAWTMGDVVEKSLEGPLAPSTDEPSQKTGDLVEILNGEKVKFDDAGLSLILQNGLETLRMENALTDVILCVDIQEFSCHRVVLAAASNYFRAMFCNDLKEKYEKRIIIKGVDAETMHTLLDYTYTSKALITKQNVQRVLEAANLFQFLRMVDACASFLTEALNPENCVGILRLADTHSLDSLKKQVQSYIIQNFVQILNSEEFLDLPVDTLHHILKSDDLYVTEEAQVFETVMSWVRHKPSERLCLLPYVLENVRLPLLDPWYFVETVEADPLIRQCPEVFPLLQEARMYHLSGNEIISERTKPRMHEFQSEVFMIIGGCTKDERFVAEVTCLDPLRRSRLEVAKLPLTEHELESENKKWVEFACVTLKNEVYISGGKETQHDVWKYNSSINKWIQIEYLNIGRWRHKMVVLGGKVYVIGGFDGLQRINNVETYDPFHNCWSEAAPLLVHVSSFAATSHKKKLYVIGGGPNGKLATDKTQCYDPSTNKWSLKAAMPVEAKCINAVSFRDRIYVVGGAMRALYAYSPLEDSWCLVTQLSHERASCGIAPCNNRLYITGGRDEKNEVIATVLCWDPEAQKLTEECVLPRGVSHHGSVTIRKSYTHIRRIVPGAVSV
For the molecule B3, the binding entry in [4] and in [5] was “binds” throughout.

B4: HA-tagged wild-type MX2 (protein, UniProt P20592 1-715)
chain: MSKAHKPWPYRRRSQFSSRKYLKKEMNSFQQQPPPFGTVPPQMMFPPNWQGAEKDAAFLAKDFNFLTLNNQPPPGNRSQPRAMGPENNLYSQYEQKVRPCIDLIDSLRALGVEQDLALPAIAVIGDQSSGKSSVLEALSGVALPRGSGIVTRCPLVLKLKKQPCEAWAGRISYRNTELELQDPGQVEKEIHKAQNVMAGNGRGISHELISLEITSPEVPDLTIIDLPGITRVAVDNQPRDIGLQIKALIKKYIQRQQTINLVVVPCNVDIATTEALSMAHEVDPEGDRTIGILTKPDLMDRGTEKSVMNVVRNLTYPLKKGYMIVKCRGQQEITNRLSLAEATKKEITFFQTHPYFRVLLEEGSATVPRLAERLTTELIMHIQKSLPLLEGQIRESHQKATEELRRCGADIPSQEADKMFFLIEKIKMFNQDIEKLVEGEEVVRENETRLYNKIREDFKNWVGILATNTQKVKNIIHEEVEKYEKQYRGKELLGFVNYKTFEIIVHQYIQQLVEPALSMLQKAMEIIQQAFINVAKKHFGEFFNLNQTVQSTIEDIKVKHTAKAENMIQLQFRMEQMVFCQDQIYSVVLKKVREEIFNPLGTPSQNMKLNSHFPSNESSVSSFTEIGIHLNAYFLETSKRLANQIPFIIQYFMLRENGDSLQKAMMQILQEKNRYSWLLQEQSETATKRRILKERIYRLTQARHALCQFSSKEIH
For B4, the binding result in assay [9] is “binds”.
